# Assay results as given in PubChem BioAssay AID686970 (National Center for Advancing Translational Sciences (NCATS), 2013).
# In all, about 360,000 compounds went through this assay and about 6,000 (1.7%) were called active. Inconclusive means that the source gave no clear call. Such entries were picked first, then a sample of the others. Calls follow the shape of the dose curve; as a rule, active = well fitted cell-killing curve with a large enough effect; inconclusive = small, poorly fitted or top-dose-only effect, or effect the other way; inactive = flat fitted curve, though single readings scatter. No potency is given beside an inconclusive call; the fits are too rough.
# Assay: qHTS for induction of synthetic lethality in tumor cells producing 2HG: qHTS for the HT-1080-NT fibrosarcoma cell line;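 also: NT is the 2HG producing partner of a matched IDH1 knockdown line; nearly all actives have a fitted effect of over 55% in size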;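 as to activity, negative = less viability: 0% = DMSO-treated cells and -100% = media-only wells without cells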
# Conditions: HT-1080-NT fibrosarcoma viability, CellTiter-Glo ATP luminescence, 48 h; activity, negative = less viability: at 46.1 µM (top of the series) unless noted
# How it was run: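 Toxicity toward the 2HG-producing NT line was scored as %Activity, normalised to DMSO and no-cell wells, from CellTiter-Glo luminescence after 48 hours' treatment.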
# Potency is read from the fitted curve at half-maximal effect; tags tell the direction and shape of the fitted curve.
SMILES,Potency,"activity, negative = less viability"
Cc1cc(C)nc(N2CCC(C(=O)NCc3cccs3)CC2)n1,inactive,–
Cc1ccc(N(CC(O)Cn2c3ccccc3c3ccccc32)S(C)(=O)=O)c(C)c1 (configuration not stated),active: 17.8 µM,–
CCN1C(=O)c2ccc(C(=O)Nc3ccc4c(c3)OCO4)cc2C1=O,inactive,–
Cn1c(=O)c(C#N)c(-c2ccc(F)cc2)c2cc(C(=O)c3cc(Cl)cc(Cl)c3O)cnc21,–,inconclusive: -33.5% [cytotoxic]
CCOc1ccccc1NC(=S)NCc1ccccc1,"inconclusive [rising, full curve, poor fit]",–
Cn1cc(-c2cccc3nncn23)cn1,"inconclusive [rising, single point]",–
COc1ccc(S(=O)(=O)N2CCCC(C(=O)NC3CC3)C2)cc1OC (configuration not stated),inactive,–
N#CCC(=O)N/N=C/c1cn(Cc2ccc(Cl)c(Cl)c2)c2ccccc12,"inconclusive [cytotoxic, single point]",–
O=C(CCNC(=O)Cn1cnc2ccccc2c1=O)NCC1CCCO1 (configuration not stated),–,inconclusive: 30.9%
COc1ccc(N2CC(C(=O)N3CCC4(CC3)CC(=O)c3ccccc3O4)CC2=O)cc1 (configuration not stated),"inconclusive [cytotoxic, single point]",–
CCOC(=O)c1c(NC(=O)c2ccc(S(=O)(=O)N(C)CC3CCCO3)cc2)sc2c1CCN(C)C2 (configuration not stated),"inconclusive [cytotoxic, single point]",–
C=CC[C@H](CC(=O)N(CCO)Cc1ccccc1)C(=O)N[C@@H](COC(=O)[C@@H](CC=C)CC(=O)OC(C)(C)C)Cc1c[nH]c2ccccc12,"inconclusive [cytotoxic, single point]",–
COc1cccc(-c2csc(N3CCN(C(=S)Nc4ccccc4)CC3)n2)c1,active: 22.4 µM,–
Cc1ccc(C(=O)Nc2cccc3[nH]c(C(F)(F)F)nc23)cc1,"inconclusive [cytotoxic, partial curve, poor fit]",–
CCOc1ccc(-c2csc3nc[nH]c(=O)c23)cc1,inactive,–
CCCCNCc1cc(Cl)c(OCCC)c(OCC)c1,"inconclusive [cytotoxic, single point]",–
CN(c1cccc(NC(=O)Nc2cccc(Cl)c2)c1)S(C)(=O)=O,inactive,–
CCN1CCN(c2oc(COc3ccc(-c4ccccc4)cc3)nc2C#N)CC1,"inconclusive [cytotoxic, single point]",–
Cc1cc(O)c(C(C)C)cc1NC(=O)Nc1cccc2ccccc12,inactive,–
COc1ccc(S(=O)(=O)Nc2cc3c4c(oc3c3ccccc23)CCCC4=O)cc1,"inconclusive [cytotoxic, full curve]",–
Cc1ccc(NC(=O)c2nc[nH]c2C(=O)NC2CCN(C(=O)OC(C)(C)C)CC2)cc1,inactive,–
COc1cccc(-c2ncc3ccccc3c2COC(=O)c2ccco2)c1,inactive,–
CCNS(=O)(=O)c1ccc(CCC(=O)N2CCN(c3ccccc3F)CC2)cc1,inactive,–
COc1cccc(C2c3[nH]c4ccccc4c3CCN2Cc2cccn2-c2ncccn2)c1 (configuration not stated),"inconclusive [cytotoxic, single point]",–

SMILES,Potency,"activity, negative = less viability"
O=C1CCN(CCc2ccccc2)CCN1[C@H](COc1ccccc1)Cc1ccccc1,"inconclusive [cytotoxic, single point]",–
COc1cccc(Cn2nnc(C(=O)NCCc3ccc(Cl)cc3)c2N)c1,inactive,–
CCOC(=O)Cn1cc(/C=C/[N+](=O)[O-])c2ccccc21,"inconclusive [cytotoxic, single point]",–
O=C(CNC(=O)Cc1ccccc1)NCC(=O)OCC(=O)c1cccc2ccccc12,inactive,–
Cc1ccc(NC(C)C(=O)N/N=C/c2ccc([N+](=O)[O-])s2)cc1 (configuration not stated),"inconclusive [cytotoxic, partial curve]",–
C=C(C)CSc1cc(C)nc2c(-c3ccccc3)c(C)nn12,"inconclusive [cytotoxic, single point]",–
CCOC(=O)C1C2C=CC3(CN(Cc4cccs4)C(=O)C13)O2 (configuration not stated),inactive,–
CCOc1cc2nc(-c3ccc(OC)c(OC)c3)nc(NCCCN3CCOCC3)c2cc1OC,"inconclusive [cytotoxic, partial curve, poor fit]",–
CCOc1ccc(-c2cc(C(=O)O)c3ccccc3n2)cc1,"inconclusive [cytotoxic, single point]",–
O=C(Nc1ccc(C(=O)Nc2ccccc2Cl)cc1)c1cccnc1,active: 8.2 µM,–
COc1ccccc1C/C(N)=N/OC(=O)/C=C/c1ccccc1,"inconclusive [cytotoxic, single point]",–
CCOc1ccc(S(=O)(=O)n2cc(F)c(=O)[nH]c2=O)cc1,inactive,–
COc1ccc(C(=O)N/N=C(\Cc2ncc[nH]2)c2ccccc2)cc1,–,inconclusive: -21.8% [cytotoxic]
Cc1c(C(=O)C(=O)N2CC=C(c3ccccc3)CC2)c2ccccc2n1C,active: 2.59 µM,–
O=C(C1=C(c2ccccc2)C(=O)c2ccccc2C1=O)c1ccccc1,"inconclusive [cytotoxic, single point]",–
CC(C)c1nccn1S(=O)(=O)c1cccc([N+](=O)[O-])c1,inactive,–
COC(=O)c1[nH]c2ccc(C)cc2c1NC(=O)Nc1ccc(OC)cc1,inactive,–
N#Cc1ccccc1Cn1c(=O)n(Cc2ccc(C(=O)NCc3ccco3)cc2)c(=O)c2ccccc21,"inconclusive [cytotoxic, partial curve]",–
COc1ccccc1NC(=O)Cn1c(C)cc(=O)c2cccc(OC)c21,"inconclusive [cytotoxic, partial curve]",–
CC1Cc2cc(/C=C3/SC(N4CCC(C(N)=O)CC4)=NC3=O)ccc2O1 (configuration not stated),"inconclusive [cytotoxic, single point]",–
CN(C)c1ccnc(Oc2ccc(Cl)cc2)c1C#N,"inconclusive [cytotoxic, single point]",–
CN(C)c1ccc(P(=O)(COc2ccc([N+](=O)[O-])cc2)c2ccc(N(C)C)cc2)cc1,"inconclusive [cytotoxic, single point]",–
CCC1CCCCN1C(=O)c1cc(COc2ccc(-n3cncn3)cc2)on1 (configuration not stated),"inconclusive [cytotoxic, single point]",–
COc1ccc(-c2ccnc3nc(Sc4ncc(C(F)(F)F)cc4Cl)nn23)cc1,"inconclusive [cytotoxic, partial curve]",–

SMILES,Potency,"activity, negative = less viability"
Cn1nc(C(F)(F)F)c2cc(C(=O)Nc3ccc(C(F)(F)F)cc3)sc21,"inconclusive [cytotoxic, partial curve]",–
Clc1cccc(COn2c(-c3ccc(Cl)cc3Cl)nc3ncccc32)c1,inactive,–
COc1ccccc1-c1nnc(NC(=O)c2ccc(S(=O)(=O)N(C)Cc3ccccc3)cc2)o1,"inconclusive [cytotoxic, partial curve]",–
COC(=O)Cn1c(=NC(=O)c2ccc(OC)c(OC)c2)sc2cc(OC)ccc21,"inconclusive [cytotoxic, partial curve]",–
Cc1cc(Cl)ccc1C(O)c1ncc(-c2ccc(Cl)cc2)[nH]1 (configuration not stated),"inconclusive [cytotoxic, partial curve]",–
CCN(CC)c1ccc(C(=O)n2cnc3ccccc32)cc1,"inconclusive [cytotoxic, single point]",–
COCCNC(=O)C1(C)Cc2c(-c3cccc(C(F)(F)F)c3)ccnc2O1 (configuration not stated),"inconclusive [cytotoxic, single point]",–
CCCn1c(=O)c2c(nc3n2CCS3)n(C)c1=O,inactive,–
Nc1ccc(-c2nc3cc(N)ccc3o2)cc1,inactive,–
CC(C)CC(=O)N(Cc1ccc(F)cc1)C1CCS(=O)(=O)C1 (configuration not stated),inactive,–
COc1cccc(Nc2nc(C(N)C(C)C)cs2)n1 (configuration not stated),"inconclusive [cytotoxic, single point]",–
CC(=O)c1cccc(N=Nc2c(-c3ccccc3)[nH]n(-c3ccccc3)c2=O)c1,inactive,–
Cc1cccc(C)c1NC(=O)C(CCc1ccccc1)n1c(=O)c(-c2ccccc2)nc2ccccc21 (configuration not stated),"inconclusive [cytotoxic, single point]",–
CNC(=S)Nc1ccc(C23CC4CC(CC(C4)C2)C3)cc1,"inconclusive [cytotoxic, single point]",–
CC1N(C)c2cc(NC(=O)c3ccco3)ccc2C1(C)C (configuration not stated),"inconclusive [cytotoxic, single point]",–
Oc1cncc(Cc2ccccc2)c1,inactive,–
O=C1C=CCCC1,"inconclusive [rising, full curve, poor fit]",–
S=C(NCCc1ccccn1)Nc1cccc(Cl)c1,inactive,–
COc1ccc(-c2nnn(CC(=O)N3CCN(c4ccccc4OC)CC3)n2)cc1,inactive,–
Cc1ccc(C(=O)Nc2ccc(N3CCN(C(=O)c4cccs4)CC3)cc2)c(Cl)c1,"inconclusive [cytotoxic, single point]",–
Cc1cc2c(cc(C(=O)NCCCN3CCOCC3)n2Cc2ccc(Cl)cc2)o1,"inconclusive [cytotoxic, partial curve]",–
COc1cccc(C(O)c2nc(-c3cncnc3)cs2)c1 (configuration not stated),inactive,–
O=C1C=C(c2cccs2)C[C@H](c2ccccc2)[C@H]1n1nnc([N+](=O)[O-])n1,"inconclusive [cytotoxic, full curve]",–
OC(c1cc(-c2ccc(Cl)cc2)nc2ccccc12)C1CCCCN1 (configuration not stated),"inconclusive [cytotoxic, single point]",–
